“And” between values parts separate entries of the source, which are not always exact repeats. Identical values can stand only once. Over roughly 13,000 compounds, “IFI” has its median near 4; the highest 2% begin near 17. This is one part of the list.
assay: GSK_TCMDC: Inhibition Frequency Index (IFI). The number of non-kinase HTS assays where a compound showed > 50 % inhibition, expressed as a percentage of the number of such assays in which the compound was tested (-0 is zero); type: functional

| Structure (SMILES) | IFI |
| --- | --- |
| CN(Cc1ccccc1)C1CCN(c2cc(NC(=O)c3cccc(F)c3)ccn2)CC1 | 2.78% |
| Cc1cc(=O)c2cc(Oc3ccc(OC(F)(F)F)cc3)ccc2[nH]1 | 5.13% |
| O=C(Cc1ccccn1)Nc1cccc(-c2cccc(-c3nc4cc(C(F)(F)F)ccc4[nH]3)c2)c1 | 9.57% |
| Cn1cncc1CCN(Cc1ccc(-c2ccc(C(F)(F)F)cc2)cc1)C(=O)Cn1c(SCc2cccc(F)c2F)cc(=O)c2ccccc21 | 5.22% |
| CCC(O)(C#Cc1c(C)nc(N)nc1N)CC | 2.16% |
| C[C@H](NC(=O)c1c(CN2CCC(NC(=O)CC(C)(C)C)CC2)c(-c2cccs2)nc2ccccc12)C1CCCCC1 | 1.59% |
| CN(C)CCCOc1cccc(NC(=O)Nc2ccc(Cl)c(Cl)c2)c1 | 2.19% |
| N#Cc1cccc(NC(=O)Nc2cccc(OC3CCN(Cc4ccccc4)CC3)c2)c1 | 2.88% |
| CC(=O)c1cccc2[nH]c(C(=O)NC3CCC(CCN4CCc5ccc(C#N)cc5C4)CC3)cc12 (centres undefined) | 1.48% |
| CCCCCc1cc(OCCN(C)C)cc2c1C(=O)CC(C)(C)O2 | 2.13% |
| N#Cc1ccc(OCCN(Cc2ccccc2C(F)(F)F)c2ccc(C#N)c(C(F)(F)F)c2)cc1 | -0% |
| COc1cc(C(=O)NC2CCN(Cc3ccccc3)CC2)ccc1-c1nc2cc(Cl)c(C)cc2[nH]1 | 0.76% |
| O=C(Nc1ccc(-c2cccc(-c3nc4ccccc4[nH]3)c2)cc1)Nc1ccc(Cl)c(Cl)c1 | 6.06% |
| O=C(NC1CCN(Cc2ccccc2)CC1)c1cc(-c2ccncc2)nc2ccc(Cl)cc12 | 1.79% |
| O=C(N[C@@H](Cc1ccccc1)C(=O)NCCN1CCCCC1)c1ccc(O)c(-c2ccc(Cl)c(Cl)c2)c1 | 5% |
| Cc1cc2[nH]c(-c3ccc(C(=O)NCCCN4CCN(c5cccc(Cl)c5)CC4)cc3F)nc2cc1Cl | 0.77% |
| Nc1nc(N)c2c(ccc3c2ccn3CCCC2CCCNC2)n1 (centres undefined) | 2.8% |
| N#Cc1cccc(COC(=O)C2=C(COc3ccccc3Cl)NC(=O)NC2c2c[nH]c3cnccc23)c1 (centres undefined) | 3.64% |
| Oc1c(Cl)cc(Nc2nccc(Nc3ccc(Oc4ccccc4)cc3)n2)cc1Cl | 2.31% |
| COc1cccc(-c2ccc(O)c(CNCCc3cccc(F)c3)c2)n1 | 2.7% |
| CCc1ccc(NC(=O)c2ccc(CN3CCCN(Cc4cccs4)CC3)cc2)cc1 | 6.35% |
| O=C(Nc1ccc(NC2=NCCN2)cc1)c1ccc(C(=O)Nc2ccc(NC3=NCCN3)cc2)cc1 | 2.27% |
| O=C(Nc1ccc(OC2CCN(Cc3ccsc3)C2)c(Cl)c1)c1ccsc1 (centres undefined) | 0% |

| Structure (SMILES) | IFI |
| --- | --- |
| Oc1cccc2ccc(Nc3ccccn3)nc12 | 11.3% |
| CN(CCN(C)CC(O)c1ccc(Cl)c(Cl)c1)CC(O)c1ccc(Cl)c(Cl)c1 (centres undefined) | 3.76% |
| CN1CCN(CCCCCNc2c3ccccc3nc3ccccc23)CC1 | 5.63% |
| O=C(Nc1ccc(Cl)cc1)Nc1cccc(-c2cccc(-c3nc4cc(C(F)(F)F)ccc4[nH]3)c2)c1 | 9% |
| Cc1cc2nc(-c3ccc(/C=C/C(=O)NC4CCN(Cc5ccccc5)CC4)cc3)[nH]c2cc1C | 3.76% |
| Cc1ccccc1OCC(O)CN1CCC(C2CCN(CC(O)COc3ccccc3C)CC2)CC1 (centres undefined) | 5.8% |
| C[C@@H](Oc1cc(-n2cnc3ccc(NC(=O)NC(C)(C)C)cc32)sc1C(N)=O)c1ccccc1Cl | 7.35% |
| COc1ccc2nccc([C@@H](O)CN3CCC(NC(=O)C(=Cc4ccc(Cl)cc4Cl)c4ccc(-c5ccccc5)cc4)CC3)c2c1 | 0.74% |
| CCN(CC)S(=O)(=O)c1ccc(C=CC(=O)Nc2cc(Cl)ccc2N2CCOCC2)cc1 | 1.61% |
| CCCCCn1c(Sc2ccc(C#N)c([N+](=O)[O-])c2)nnc1-c1cccc(Cl)c1 | 7.04% |
| Cc1cc(C(=O)N[C@H]2CCN(Cc3ccc(OCCCN(C)C)cc3)C2)ccc1Br | 6.67% |
| CCCCCOc1ccc(/N=C2\C=C(O)C(=O)c3ccccc32)cc1 | 2.92% |
| CNC(=O)c1ccc2nc(-c3ccc(-c4ccccc4)cc3)n(CC3CCN(CC4CCCC4)CC3)c2c1 | 4.13% |
| COc1ccc2nccc([C@@H](O)CN3CCC(NCc4nc5ccc(F)cc5[nH]4)CC3)c2c1 | 0.73% |
| CSc1nc2cc3c(cc2n1C(=O)c1ccc(C)cc1)OCCO3 | 2.53% |
| COc1cc2c(cc1OC)CN(CCCCc1ccc(NC(=O)c3cc(Cl)cc(Cl)c3)cc1)CC2 | 3.57% |
| Cc1cccc2nc(-c3cccc(-c4cccc(CNCCN5CCNCC5)c4)c3)[nH]c12 | 8.91% |
| O=C1COc2ccc3ccccc3c21 | -0% |
| O=C(Nc1cccc(CN2CCCN(Cc3cccc(Cl)c3)CC2)c1)c1ccc(Cl)c(Cl)c1 | 7.43% |
| C[C@H](Cc1ccc(Oc2ccc(C[C@@H](C)NC[C@H](O)c3cccc(Cl)c3)cc2)cc1)NC[C@H](O)c1cccc(Cl)c1 | 20.8% |
| CCNc1cc(C(=O)N[C@@H](Cc2ccccc2)[C@H](O)CNC2(Cc3cccc(Cl)c3)CCC2)cc(N2CCCCS2(=O)=O)c1 | 5.93% |
| CCOc1cc(NC(=O)Nc2ccnc3ccccc23)cc(OC)c1 | 4.29% |
| CCCCN(CCCC)CCCN(CCCN(CCCC)CCCC)c1cc(C)nc(Nc2ccc(Br)cc2)n1 | 14% |

| Structure (SMILES) | IFI |
| --- | --- |
| Cc1[nH]c2c(NCc3ccc(F)cc3)nccc2c1C | 5.36% |
| CCCCOc1c(CCC)cc(Cc2cnc(N)nc2N)cc1CCC | 10.1% |
| CC(=O)N(C)C1CCN(Cc2cccc(-c3ccc(-c4nc5cc(C(F)(F)F)ccc5[nH]4)cc3)c2)C1 (centres undefined) | 2.82% |
| CC(=O)N1N=C(c2ccc(Cl)cc2)Sc2c1nc(C1CCCCC1)n2C(C)=O | 1.61% |
| O=C1CCCN1CCCNCc1ccc(-c2cccc(-c3nc4cc(C(F)(F)F)ccc4[nH]3)c2)cc1 | 6.8% |
| O=C(NC(=S)NCc1ccncc1)c1ccccc1 | -0% |
| COc1ccc2nccc([C@@H](O)CN3CCC(NCc4cc5c(F)ccc(F)c5[nH]4)CC3)c2c1 | 9.15% |
| O=C(Nc1ccc(C(F)(F)F)cc1)c1cccc(S(=O)(=O)NC2CCN(CC3CCCCC3)CC2)c1 | 11.9% |
| COc1ccc(S(=O)(=O)NC2CCN(CCCOc3ccnc4cc(Cl)ccc34)C2)cc1OC (centres undefined) | 0.88% |
| CCN(CC)CCN(Cc1ccc(-c2ccc(C(F)(F)F)cc2)cc1)C(=O)Cn1c(CCc2cc(F)c(F)c(F)c2)nc(=O)c2ccccc21 | 6.67% |
| CC(C)CNCc1ccc(-c2cccc(CN(CCN(C)C)C(=O)CCC3CCCC3)c2)cc1 | 9.15% |
| CCn1c(-c2nonc2N)nc2c(-c3cccc(Cl)c3)ncc(OCCCNCCc3c[nH]cn3)c21 | 7.69% |
| Cc1cc(C)cc(OCC(O)CN(CCN2CCOCC2)C(=O)Nc2ccc(Br)cc2)c1 (centres undefined) | 2.86% |
| O=C(N[C@H]1CCN(Cc2ccc(OC3CCN(Cc4ccccc4)CC3)c(Cl)c2)C1)c1ccc(Cl)c(Cl)c1 | 8% |
| O=C(Nc1ccc(Cl)cc1)NC1CCN(CCCCCNC(=O)C2CC2c2ccc(Cl)c(Cl)c2)CC1 (centres undefined) | 10.2% |
| Cc1nnc(-c2cccc(Nc3ccnc4cc(-c5nccs5)ccc34)c2)o1 | 7.35% |
| N#Cc1ccc(C(=O)Nc2ccc(-c3cccc(CN4CCCC4)c3)cc2)cc1 | 0.98% |
| CCOC(=O)C(=CNc1ccc(Cc2cnc(N)nc2N)cc1CC)C(=O)OCC | 3.62% |
| COc1ccc(C=NN=c2cc(C)[nH]c3ccccc23)cc1OC | 2.84% |
| COc1cc(C)nc2ccc(NC(=O)COCC(=O)Nc3ccc4nc(C)cc(OC)c4c3)cc12 | 1.43% |
| CN1CCN(c2ccc(-c3nc4ccc(OCc5cc(Cl)cc(Cl)c5)c(C(N)=O)c4[nH]3)cc2)CC1 | 7.58% |
| CCc1cn(CCCOC)c2ccc(C(=O)N[C@@H](Cc3ccccc3)[C@H](O)CNCc3cccc(C(F)(F)F)c3)cc12 | 5.19% |
| COc1cccc(CCc2c(CCNCCCCCCNCCc3ccccc3)ccc(OC)c2OC)c1 | 14.4% |

| Structure (SMILES) | IFI |
| --- | --- |
| N/C(=N\c1cccc(Cc2ccccc2)n1)NCc1ccccc1 | 21% |
| CN(C)CCCNc1ncnc2c1[nH]c1ccc(Br)cc12 | 1.52% |
| N=C1N=C(N)NC2(CCCCC2)N1OCCCOc1cc(Cl)c(Cl)cc1Cl | 14.7% |
| CCCCCC(=O)N1CCOC(CCN2CCC(c3ccccc3)CC2)(c2ccc(Cl)c(Cl)c2)C1 (centres undefined) | 8.78% |
| CC(C)(C)Oc1ccc(CC2NC3(C(=O)N(Cc4ccc(C(C)(C)C)cc4)c4ccccc43)C3C(=O)N(c4ccc(Br)cc4)C(=O)C23)cc1 (centres undefined) | 0.72% |
| CN1CCN(c2ccc3[nH]c(-c4ccc(Cc5cc(Cl)ccc5OCc5ccccc5)o4)nc3c2)CC1 | 24.7% |
| CCn1c(-c2nonc2N)nc2c(Cl)ncc(O[C@H](CCN)c3ccccc3F)c21 | 23.1% |
| O=C(Nc1ccc(OC2CCN(Cc3ccsc3)C2)c(Cl)c1)c1ccc2ncccc2c1 (centres undefined) | 6.35% |
| CN1CCN(CC(=O)Nc2cccc(-c3cccc(-c4nc5cc(C(F)(F)F)ccc5[nH]4)c3)c2)CC1 | 3.6% |
| COc1nc2c(N3CCN(CCNCc4ccc5c(n4)NC(=O)CS5)CC3)ccnc2cc1F | 2.4% |
| COCc1cccc(-c2cc(-c3ccc(S(C)(=O)=O)cc3)cnc2N)c1 | -0% |
| CN(C)CCNc1ncnc2c1[nH]c1ccc(Cl)cc12 | -0% |
| COc1ccccc1CNC(=O)c1cc(Br)cc(N2CCN(c3ccncc3)CC2)c1 | 9.38% |
| N#Cc1ccc2c(c1)CN(CC[C@H]1CC[C@H](NC(=O)/C=C/c3c[nH]c4ccccc34)CC1)CC2 | 0.76% and 3.01% |
| COc1ccc(-c2nonc2NC(=O)c2ccc(OC(C)C)cc2)cc1OC | 3.45% |
| COCCNCc1ncsc1-c1ccc2c(Nc3cc(O)ccc3C)ccnc2c1 | 3.55% |
| Cc1cccc(C(=O)Nc2ccnc(N3CCCN(Cc4cccc(O)c4)CC3)c2)c1 | 5.26% |
| CN1CCN(CC(=O)Nc2cccc(-c3cccc(-c4nc5ccccc5[nH]4)c3)c2)CC1 | 1.8% |
| CN1CCN(c2ccnc3ccc(NC(=O)Nc4ccc5c(c4)CCC5=O)cc23)CC1 | 2.05% |
| O=C(/C=C/c1ccc(Cl)c(Cl)c1)NCCCCCN1CCC(NC(=O)Nc2ccc(F)cc2F)CC1 | 6.54% |

Source: ChEMBL document CHEMBL1157539, “Thousands of chemical starting points for antimalarial lead identification” (Nature, 2010)
